# According to the supplement of paper PMC8728848:
# Some of the results follow.
# Legend:
# Experiment in all cases: glycan array binding signal (z-score within array); higher = stronger binding
# Settings in all cases: glycan notation: IUPAC condensed, linker removed
# [1] = target: Neu5Ac(a2-8)Neu5Ac(a2-3)Gal(b1-4)GlcNAc
# How it was run: (§1)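 Glycan array data came from 3228 arrays in the Consortium for Functional Glycomics database, and only arrays with an available protein sequence were kept. Glycan names were put into IUPAC-condensed notation, and columns mapping to the same glycan were averaged. The binding signal is a within-array Z-score, averaged across arrays of one protein sequence run at different concentrations or buffers and across linkers. A negative Z-score can be read as non-binding.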
# [2] = target: Neu5Ac(a2-8)Neu5Ac(a2-3)[Gal(b1-3)GalNAc(b1-4)]Gal(b1-4)Glc
# How it was run: as §1
# [3] = target: Neu5Ac(a2-8)Neu5Ac(a2-3)[GalNAc(b1-4)]Gal(b1-4)Glc
# How it was run: as §1
# [4] = target: Neu5Ac(a2-8)Neu5Ac(a2-8)Neu5Ac
# How it was run: as §1
# [5] = target: Neu5Ac(a2-8)Neu5Ac(a2-8)Neu5Ac(a2-3)Gal(b1-4)Glc
# How it was run: as §1
# [6] = target: Neu5Ac(a2-8)Neu5Ac(a2-8)Neu5Ac(a2-3)[Gal(b1-3)GalNAc(b1-4)]Gal(b1-4)Glc
# How it was run: as §1
# [7] = target: Neu5Ac(a2-8)Neu5Ac(a2-8)Neu5Ac(a2-3)[GalNAc(b1-4)]Gal(b1-4)Glc
# How it was run: as §1
# [8] = target: Neu5Ac(a2-8)Neu5Ac(a2-8)Neu5Ac(a2-8)Neu5Ac(a2-3)[GalNAc(b1-4)]Gal(b1-4)Glc
# How it was run: as §1
# [9] = target: Neu5Ac(a2-8)Neu5Gc(a2-3)Gal(b1-4)GlcNAc
# How it was run: as §1
# [10] = target: Neu5Ac(b2-6)Gal(b1-4)GlcNAc
# How it was run: as §1
# Neu5Ac(b2-6)GalNAc = target: Neu5Ac(b2-6)GalNAc
# How it was run: as §1
# [11] = target: Neu5Ac9Ac(a2-3)Gal(b1-3)GlcNAc
# How it was run: as §1
# [12] = target: Neu5Ac9Ac(a2-3)Gal(b1-4)GlcNAc
# How it was run: as §1
# [13] = target: Neu5Ac9Ac(a2-6)Gal(b1-4)GlcNAc
# How it was run: as §1
# [14] = target: Neu5Gc(a2-3)Gal(b1-3)GlcNAc
# How it was run: as §1
# [15] = target: Neu5Gc(a2-3)Gal(b1-3)[Fuc(a1-4)]GlcNAc
# How it was run: as §1
# Neu5Gc(a2-3)Gal(b1-4)Glc = target: Neu5Gc(a2-3)Gal(b1-4)Glc
# How it was run: as §1
# [16] = target: Neu5Gc(a2-3)Gal(b1-4)GlcNAc
# How it was run: as §1
# [17] = target: Neu5Gc(a2-3)Gal(b1-4)GlcNAc(b1-3)Gal(b1-4)GlcNAc(b1-2)Man(a1-3)[Neu5Gc(a2-3)Gal(b1-4)GlcNAc(b1-3)Gal(b1-4)GlcNAc(b1-2)Man(a1-6)]Man(b1-4)GlcNAc(b1-4)GlcNAc
# How it was run: as §1
# [18] = target: Neu5Gc(a2-3)Gal(b1-4)[Fuc(a1-3)]GlcNAc
# How it was run: as §1
# [19] = target: Neu5Gc(a2-6)Gal(b1-4)GlcNAc
# How it was run: as §1
# Neu5Gc(a2-6)GalNAc = target: Neu5Gc(a2-6)GalNAc
# How it was run: as §1
# [20] = target: Neu5Gc(a2-8)Neu5Ac(a2-3)Gal(b1-4)GlcNAc
# How it was run: as §1
# [21] = target: Neu5Gc(a2-8)Neu5Gc(a2-3)Gal(b1-4)GlcNAc
# How it was run: as §1
# [22] = target: Neu5Gc(a2-8)Neu5Gc(a2-3)Gal(b1-4)GlcNAc(b1-3)Gal(b1-4)GlcNAc
# How it was run: as §1
# [23] = target: Neu5Gc(a2-8)Neu5Gc(a2-6)Gal(b1-4)GlcNAc
# How it was run: as §1
# [24] = target: Neu5Gc(b2-6)Gal(b1-4)GlcNAc
# How it was run: as §1
binder,measurement,setting,value
"Siglec-F (Mus musculus), Q920G3 (protein) MRWAWLLPLLWAGCLATDGYSLSVTGSVTVQEGLCVFVACQVQYPNSKGPVFGYWFREGANIFSGSPVATNDPQRSVLKEAQGRFYLMGKENSHNCSLDIRDAQKIDTGTYFFRLDGSVKYSFQKSMLSVLVIALTEVPNIQVTSTLVSGNSTKLLCSVPWACEQGTPPIFSWMSSALTSLGHRTTLSSELNLTPRPQDNGTNLTCQVNLPGTGVTVERTQQLSVIYAPQKMTIRVSWGDDTGTKVLQSGASLQIQEGESLSLVCMADSNPPAVLSWERPTQKPFQLSTPAELQLPRAELEDQGKYICQAQNSQGAQTASVSLSIRSLLQLLGPSCSFEGQGLHCSCSSRAWPAPSLRWRLGEGVLEGNSSNGSFTVKSSSAGQWANSSLILSMEFSSNHRLSCEAWSDNRVQRATILLVSGPKVSQAGKSETSRGTVLGAIWGAGLMALLAVCLCLIFFTVKVLRKKSALKVAATKGNHLAKNPASTINSASITSSNIALGYPIQGHLNEPGSQTQKEQPPLATVPDTQKDEPELHYASLSFQGPMPPKPQNTEAMKSVYTEIKIHKC",glycan array binding signal (z-score),[1],-0.17
same,glycan array binding signal (z-score),[2],-0.036
same,glycan array binding signal (z-score),[3],-0.119
same,glycan array binding signal (z-score),[4],-0.127
same,glycan array binding signal (z-score),[5],-0.116
same,glycan array binding signal (z-score),[6],-0.135
same,glycan array binding signal (z-score),[7],-0.027
same,glycan array binding signal (z-score),[8],-0.104
same,glycan array binding signal (z-score),[9],-0.163
same,glycan array binding signal (z-score),[10],-0.126
same,glycan array binding signal (z-score),Neu5Ac(b2-6)GalNAc,-0.124
same,glycan array binding signal (z-score),[11],-0.092
same,glycan array binding signal (z-score),[12],-0.121
same,glycan array binding signal (z-score),[13],-0.121
same,glycan array binding signal (z-score),[14],-0.118
same,glycan array binding signal (z-score),[15],-0.112
same,glycan array binding signal (z-score),Neu5Gc(a2-3)Gal(b1-4)Glc,-0.118
same,glycan array binding signal (z-score),[16],-0.126
same,glycan array binding signal (z-score),[17],-0.13
same,glycan array binding signal (z-score),[18],-0.121
same,glycan array binding signal (z-score),[19],-0.111
same,glycan array binding signal (z-score),Neu5Gc(a2-6)GalNAc,-0.115
same,glycan array binding signal (z-score),[20],-0.164
same,glycan array binding signal (z-score),[21],-0.15
same,glycan array binding signal (z-score),[22],-0.158
same,glycan array binding signal (z-score),[23],-0.169
same,glycan array binding signal (z-score),[24],-0.051
